# The supplement of paper PMC8728848
# Some of the results follow.
# B1: MpL2 (Macrolepiota procera) (protein)
# chain: MSTQVSSGQTYKITNVKAGTVIRLSGEDNKSIIGYPYHSGKNQQWTFNWTGKAWTLRSASSGSYLGIEGTPADGTRLVAVNDPFEWHIWRDEANENAFRIFVPFTNYNLDLSGYGDTTPGTPVQLWWTWEGLHQTWTIDRP
# Assays:
# Assay in all cases: glycan array binding signal (z-score within array); higher = stronger binding
# Details in all cases: glycan notation: IUPAC condensed, linker removed; mutation: D22R
# [1] = molecular target: Neu5Ac(a2-6)Gal(b1-4)GlcNAc(b1-6)[Gal(b1-3)GlcNAc(b1-3)]Gal(b1-4)Glc
# Method in brief: (§1)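 Glycan array binding is given as a within-array Z-score, which can be read as non-binding when negative. The arrays, 3228 of them, came from the Consortium for Functional Glycomics database and were retained only where the protein sequence was available. Z-scores were averaged across arrays of the same protein sequence at different concentrations or buffers and across linkers.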
# [2] = molecular target: Neu5Ac(a2-6)Gal(b1-4)GlcNAc(b1-6)[Gal(b1-3)]GalNAc
# Method in brief: as §1
# [3] = molecular target: Neu5Ac(a2-6)Gal(b1-4)GlcNAc6S
# Method in brief: as §1
# Neu5Ac(a2-6)GalNAc = molecular target: Neu5Ac(a2-6)GalNAc
# Method in brief: as §1
# [4] = molecular target: Neu5Ac(a2-6)GalNAc(b1-4)GlcNAc
# Method in brief: as §1
# [5] = molecular target: Neu5Ac(a2-6)GalNAc(b1-4)GlcNAc6S
# Method in brief: as §1
# [6] = molecular target: Neu5Ac(a2-6)GlcNAc(b1-4)GlcNAc
# Method in brief: as §1
# [7] = molecular target: Neu5Ac(a2-6)GlcNAc(b1-4)GlcNAc(b1-4)GlcNAc
# Method in brief: as §1
# Neu5Ac(a2-8)Neu5Ac = molecular target: Neu5Ac(a2-8)Neu5Ac
# Method in brief: as §1
# [8] = molecular target: Neu5Ac(a2-8)Neu5Ac(a2-3)Gal(b1-3)GalNAc(b1-4)[Neu5Ac(a2-3)]Gal(b1-4)Glc
# Method in brief: as §1
# [9] = molecular target: Neu5Ac(a2-8)Neu5Ac(a2-3)Gal(b1-3)GalNAc(b1-4)[Neu5Ac(a2-8)Neu5Ac(a2-3)]Gal(b1-4)Glc
# Method in brief: as §1
# [10] = molecular target: Neu5Ac(a2-8)Neu5Ac(a2-3)Gal(b1-4)Glc
# Method in brief: as §1
# [11] = molecular target: Neu5Ac(a2-8)Neu5Ac(a2-3)Gal(b1-4)GlcNAc
# Method in brief: as §1
# [12] = molecular target: Neu5Ac(a2-8)Neu5Ac(a2-3)[Gal(b1-3)GalNAc(b1-4)]Gal(b1-4)Glc
# Method in brief: as §1
# [13] = molecular target: Neu5Ac(a2-8)Neu5Ac(a2-3)[GalNAc(b1-4)]Gal(b1-4)Glc
# Method in brief: as §1
# [14] = molecular target: Neu5Ac(a2-8)Neu5Ac(a2-8)Neu5Ac
# Method in brief: as §1
# [15] = molecular target: Neu5Ac(a2-8)Neu5Ac(a2-8)Neu5Ac(a2-3)Gal(b1-4)Glc
# Method in brief: as §1
# [16] = molecular target: Neu5Ac(a2-8)Neu5Ac(a2-8)Neu5Ac(a2-3)[Gal(b1-3)GalNAc(b1-4)]Gal(b1-4)Glc
# Method in brief: as §1
# [17] = molecular target: Neu5Ac(a2-8)Neu5Ac(a2-8)Neu5Ac(a2-3)[GalNAc(b1-4)]Gal(b1-4)Glc
# Method in brief: as §1
# [18] = molecular target: Neu5Ac(a2-8)Neu5Ac(a2-8)Neu5Ac(a2-8)Neu5Ac(a2-3)[GalNAc(b1-4)]Gal(b1-4)Glc
# Method in brief: as §1
# [19] = molecular target: Neu5Ac(a2-8)Neu5Gc(a2-3)Gal(b1-4)GlcNAc
# Method in brief: as §1
# [20] = molecular target: Neu5Ac(b2-6)Gal(b1-4)GlcNAc
# Method in brief: as §1
# Neu5Ac(b2-6)GalNAc = molecular target: Neu5Ac(b2-6)GalNAc
# Method in brief: as §1
# [21] = molecular target: Neu5Ac9Ac(a2-3)Gal(b1-3)GlcNAc
# Method in brief: as §1
# [22] = molecular target: Neu5Ac9Ac(a2-3)Gal(b1-4)GlcNAc
# Method in brief: as §1
# [23] = molecular target: Neu5Ac9Ac(a2-6)Gal(b1-4)GlcNAc
# Method in brief: as §1
# [24] = molecular target: Neu5Gc(a2-3)Gal(b1-3)GlcNAc
# Method in brief: as §1
# [25] = molecular target: Neu5Gc(a2-3)Gal(b1-3)[Fuc(a1-4)]GlcNAc
# Method in brief: as §1
# Neu5Gc(a2-3)Gal(b1-4)Glc = molecular target: Neu5Gc(a2-3)Gal(b1-4)Glc
# Method in brief: as §1
# [26] = molecular target: Neu5Gc(a2-3)Gal(b1-4)GlcNAc
# Method in brief: as §1
# [27] = molecular target: Neu5Gc(a2-3)Gal(b1-4)GlcNAc(b1-3)Gal(b1-4)GlcNAc(b1-2)Man(a1-3)[Neu5Gc(a2-3)Gal(b1-4)GlcNAc(b1-3)Gal(b1-4)GlcNAc(b1-2)Man(a1-6)]Man(b1-4)GlcNAc(b1-4)GlcNAc
# Method in brief: as §1
# [28] = molecular target: Neu5Gc(a2-3)Gal(b1-4)[Fuc(a1-3)]GlcNAc
# Method in brief: as §1
# [29] = molecular target: Neu5Gc(a2-6)Gal(b1-4)GlcNAc
# Method in brief: as §1
# Neu5Gc(a2-6)GalNAc = molecular target: Neu5Gc(a2-6)GalNAc
# Method in brief: as §1
# [30] = molecular target: Neu5Gc(a2-8)Neu5Ac(a2-3)Gal(b1-4)GlcNAc
# Method in brief: as §1
# [31] = molecular target: Neu5Gc(a2-8)Neu5Gc(a2-3)Gal(b1-4)GlcNAc
# Method in brief: as §1
# [32] = molecular target: Neu5Gc(a2-8)Neu5Gc(a2-3)Gal(b1-4)GlcNAc(b1-3)Gal(b1-4)GlcNAc
# Method in brief: as §1
# [33] = molecular target: Neu5Gc(a2-8)Neu5Gc(a2-6)Gal(b1-4)GlcNAc
# Method in brief: as §1
# [34] = molecular target: Neu5Gc(b2-6)Gal(b1-4)GlcNAc
# Method in brief: as §1
binder,measurement,setting,value
B1,glycan array binding signal (z-score),[1],-0.111
same,glycan array binding signal (z-score),[2],-0.069
same,glycan array binding signal (z-score),[3],-0.328
same,glycan array binding signal (z-score),Neu5Ac(a2-6)GalNAc,-0.42
same,glycan array binding signal (z-score),[4],-0.28
same,glycan array binding signal (z-score),[5],-0.281
same,glycan array binding signal (z-score),[6],0.636
same,glycan array binding signal (z-score),[7],-0.853
same,glycan array binding signal (z-score),Neu5Ac(a2-8)Neu5Ac,-0.611
same,glycan array binding signal (z-score),[8],-0.101
same,glycan array binding signal (z-score),[9],-0.298
same,glycan array binding signal (z-score),[10],-0.102
same,glycan array binding signal (z-score),[11],-1.21
same,glycan array binding signal (z-score),[12],-0.153
same,glycan array binding signal (z-score),[13],0.053
same,glycan array binding signal (z-score),[14],0.075
same,glycan array binding signal (z-score),[15],-0.152
same,glycan array binding signal (z-score),[16],0.517
same,glycan array binding signal (z-score),[17],0.163
same,glycan array binding signal (z-score),[18],-0.004
same,glycan array binding signal (z-score),[19],-1.01
same,glycan array binding signal (z-score),[20],0.011
same,glycan array binding signal (z-score),Neu5Ac(b2-6)GalNAc,-0.124
same,glycan array binding signal (z-score),[21],-0.859
same,glycan array binding signal (z-score),[22],0.478
same,glycan array binding signal (z-score),[23],-0.333
same,glycan array binding signal (z-score),[24],-0.233
same,glycan array binding signal (z-score),[25],-0.159
same,glycan array binding signal (z-score),Neu5Gc(a2-3)Gal(b1-4)Glc,-0.886
same,glycan array binding signal (z-score),[26],-0.338
same,glycan array binding signal (z-score),[27],-0.147
same,glycan array binding signal (z-score),[28],-0.389
same,glycan array binding signal (z-score),[29],-0.104
same,glycan array binding signal (z-score),Neu5Gc(a2-6)GalNAc,-0.346
same,glycan array binding signal (z-score),[30],-0.33
same,glycan array binding signal (z-score),[31],-0.087
same,glycan array binding signal (z-score),[32],-1.02
same,glycan array binding signal (z-score),[33],0.002
same,glycan array binding signal (z-score),[34],-0.151
